About 140 (6.1%) of roughly 2,300 compounds were called active. Inconclusive results, whose numbers are uncertain, are shown with a selection of clear calls. Calls follow the shape of the dose curve; as a rule, active = well fitted activation curve with a large enough effect; inconclusive = small, poorly fitted or top-dose-only effect; inactive = flat fitted curve, though single readings scatter. Potencies of inconclusive entries are left out as doubtful fits.
molecular target: D(2) dopamine receptor (Homo sapiens) (UniProt P14416); assay: qHTS of D3 Dopamine Receptor Agonist: D2 Dopamine Receptor B-arrestin Agonist Counterscreen; settings: DiscoveRx PathHunter D2 beta-arrestin, luminescence, 90 min; series mostly up to 76.9 µM; also: nearly all actives have a fitted effect of over 70% in size
In short: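 DiscoveRx D2 β-arrestin cells plated overnight at 37 deg C, 5% CO2, then exposed to compounds or dopamine control for 90 minutes at 37 deg C. Detection reagent added; luminescence read after 1 hour at ambient temperature.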
Potency is read from the fitted curve at half-maximal effect; tags tell the direction and shape of the fitted curve.

UniProt P14416, sequence (P14416 whole entry, looked up): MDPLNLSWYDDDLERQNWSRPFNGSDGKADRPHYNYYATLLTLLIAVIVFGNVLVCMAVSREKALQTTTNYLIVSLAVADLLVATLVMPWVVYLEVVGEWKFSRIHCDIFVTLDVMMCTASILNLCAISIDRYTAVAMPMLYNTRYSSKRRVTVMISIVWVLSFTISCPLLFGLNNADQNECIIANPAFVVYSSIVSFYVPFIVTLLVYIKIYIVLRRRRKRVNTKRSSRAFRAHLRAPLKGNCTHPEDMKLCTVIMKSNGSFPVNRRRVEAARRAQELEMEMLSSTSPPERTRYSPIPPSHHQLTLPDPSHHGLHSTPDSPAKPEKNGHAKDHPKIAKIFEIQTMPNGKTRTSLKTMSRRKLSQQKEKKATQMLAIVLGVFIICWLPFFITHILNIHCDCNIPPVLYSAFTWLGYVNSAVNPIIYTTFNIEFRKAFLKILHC

| SMILES | Potency |
| --- | --- |
| O=C(NCC(c1ccco1)N1CCN(c2ccccc2)CC1)C(=O)NC1CC1 (centres undefined) | inconclusive [activator, full curve, poor fit] |
| CC(C)(C)C1CCC(OCC(O)CN2CCN(c3ccccc3)CC2)CC1 (centres undefined) | inconclusive [activator, full curve] |
| COC(=O)Cc1ccc(NC(=S)N2CCN(c3cccc(O)c3)CC2)cc1 | inconclusive [activator, partial curve] |
| O=C(Cc1csc(Nc2nc(=S)[nH]c3ccccc23)n1)NCCCN1CCN(c2cccc(Cl)c2)CC1 | inactive |
| CC(NC(=O)c1ccc2c(c1)OCO2)C(c1cccs1)N1CCN(c2ccccc2)CC1 (centres undefined) | inactive |
| CC(C)(C)C(=O)OCc1nc(-c2ccc(O)c(O)c2)cs1 | active: 28.2 µM |
| Cc1ccc(NC(=O)CN2CCN(c3ccccn3)CC2)cc1S(=O)(=O)N(C)C | active: 14.1 µM |
| CN1CCC2(CC1)C1CN(C)CC=C1C(C#N)=C(N)C2(C#N)C#N (centres undefined) | inconclusive [activator, full curve] |
| Cc1cc(=O)oc(C)c1C(=O)NCCCN1CCN(c2ccccc2F)CC1 | inactive |
| O=C(c1ccco1)N1CCN(Cc2ccccc2F)CC1 | inconclusive [activator, partial curve] |
| CC(C)C[C@@H](CO)N1CCN(CCCc2ccccc2)CCC1=O | inactive |
| OC(COc1ccc(Br)cc1)CN1CCN(c2ccccc2)CC1 (centres undefined) | inconclusive [activator, single point] |
| CN(C)S(=O)(=O)c1ccc(Cl)c(NC(=O)CN2CCc3ccccc3C2)c1 | active: 14.1 µM |
| NS(=O)(=O)c1ccc(CCNS(=O)(=O)c2cccc3cccnc23)cc1 | inactive |
| OC(CSc1ccccc1Cl)CN1CCN(c2ccccc2F)CC1 (centres undefined) | inconclusive [activator, partial curve] |
| Cc1cc(OCC(O)CN2CCN(c3ccccn3)CC2)cc(C)c1Cl (centres undefined) | inconclusive [activator, partial curve] |
| CN=c1scc(-c2ccc(F)cc2)n1/N=C/c1ccc(O)c(O)c1 | active: 31.6 µM |
| CN1CCc2c(sc(/N=C/c3cc(C(C)(C)C)ccc3O)c2C#N)C1 | inconclusive [activator, full curve] |
| COCCN=c1scc(-c2ccco2)n1/N=C/c1ccc(O)c(O)c1O | active: 35.5 µM |
| COc1ccc(C)cc1NC(=O)CN1CCN(c2ccccn2)CC1 | inactive |
| O=C(c1cccs1)N1CCN(Cc2cccnc2)CC1 | inconclusive [activator, full curve] |
| COc1ccc([C@H]2CC(=O)C=C(c3cccc4c3Oc3ccccc3S4)C2)cc1OC | inactive |
| O=C(c1ccco1)N1CCN(Cc2cccnc2)CC1 | inconclusive [activator, full curve] |
| COc1ccc(Cn2nnnc2CN2CCc3ccccc3C2)cc1 | inconclusive [activator, full curve] |
| CCCC(c1nnnn1Cc1ccc(OC)cc1)N1CCN(c2ccccc2)CC1 (centres undefined) | inconclusive [activator, full curve] |

| SMILES | Potency |
| --- | --- |
| COc1ccc(OC)c(CN2CCN(C(=O)c3cccs3)CC2)c1 | inconclusive [activator, full curve] |
| CC1=C(C(=O)OC2CCCCC2)C(c2cccnc2)n2nnnc2N1 (centres undefined) | inactive |
| COc1cccc(CN2CCN(C(=O)c3ccco3)CC2)c1 | active: 8.91 µM |
| CN(C)S(=O)(=O)c1ccc(Cl)c(NC(=O)CN2CCN(c3ccccn3)CC2)c1 | active: 31.6 µM |
| Fc1ccccc1N1CCN(CCCNc2ccc3nncn3n2)CC1 | inconclusive [activator, full curve] |
| CCOC(=O)[C@H]1[C@H]2COc3ccc(Cl)cc3[C@@H]2N2C(=O)CN(C)C(=O)[C@@]12C | inactive |
| COC(=O)c1cccc(NC(=O)CN2CCc3ccccc3C2)c1 | inactive |
| N#Cc1ccc(NC(=O)CN2CCN(c3ccccn3)CC2)cc1 | active: 39.8 µM |
| O=C(NCCCN1CCN(c2cccc(Cl)c2)CC1)C1CCC(=O)N1Cc1ccccc1Cl (centres undefined) | inconclusive [activator, single point] |
| COc1ccc(NC(=O)C2CCCN(CCCc3ccccc3)C2)cc1OCC(C)C (centres undefined) | inconclusive [activator, full curve] |
| Cc1cc(-c2cccs2)c2c(N)c(C(=O)c3ccc4c(c3)OCO4)sc2n1 | inactive |
| Nc1nc(N2CCN(Cc3ccccc3)CC2)n[nH]1 | active: 4.47 µM |
| O=C(c1[nH]nc2c1CCc1ccccc1-2)N1CCN(Cc2ccc3c(c2)OCO3)CC1 | inconclusive [activator, full curve] |
| O=C1N=C(N2CCOCC2)S/C1=C\c1ccc(-c2ccccc2Cl)o1 | inconclusive [activator, full curve] |
| COc1ccc(/C(O)=C/c2nc3ccc(C(=O)NCCc4cccc(C)c4)cc3[nH]c2=O)cc1OC | inconclusive [activator, full curve, poor fit] |
| Cc1ccc(OCC(O)CN2CCN(c3ccccn3)CC2)c(C)c1 (centres undefined) | inconclusive [activator, full curve] |
| Cc1cccc(C)c1NC(=S)NCCc1ccc(O)c(O)c1 | inconclusive [activator, single point] |
| COc1cc(/C=N/Nc2cc(C)nc(NS(=O)(=O)c3ccccc3)n2)ccc1O | inactive |
| COc1cccc(-n2cc(CNCc3cn(C)nc3-c3ccccc3F)cn2)c1 | active: 12.6 µM |
| OC(c1cc(-c2ccc(C(F)(F)F)cc2)nc(C(F)(F)F)c1)C1CCCCN1 (centres undefined) | inconclusive [activator, single point] |
| COc1ccc(-c2nc(CN3CCN(C(=O)c4ccco4)CC3)c(C)o2)c(F)c1 | inconclusive [activator, partial curve] |
| O=C(c1ccco1)N1CCN(CCCCOc2cccc3ccccc23)CC1 | inconclusive [activator, full curve, poor fit] |
| CCCn1c(N2CCN(C(=O)Nc3ccc(Cl)cc3)CC2)nc2ccccc21 | inconclusive [activator, full curve] |
| Cc1cccc(CN2CCN(c3ncccn3)CC2)c1 | active: 7.94 µM |
| CN(c1ccc(C(=O)N2CCN(Cc3ccccc3)CC2)cc1)S(=O)(=O)c1ccc(Cl)cc1 | inconclusive [activator, partial curve] |

| SMILES | Potency |
| --- | --- |
| CCOc1ccccc1C(=O)NCC(=O)NNC(=O)CN(C)S(=O)(=O)c1ccc(Cl)cc1 | inconclusive [activator, full curve] |
| Cc1cccc(C)c1N1CCN(CCn2c(=S)[nH]c3ccccc3c2=O)CC1 | inactive |
| C=CCC(C(=O)Oc1c(C(C)(C)C)cc(C)cc1C(C)(C)C)c1ccccc1 (centres undefined) | inactive |
| Cc1ccc(C)c(OCC(=O)NNC(=O)CCN2CCN(c3ccccc3)CC2)c1 | inconclusive [activator, full curve] |
| O=C(c1cccs1)N1CCN(Cc2ccc3c(c2)OCO3)CC1 | inconclusive [activator, partial curve] |
| CCOc1ccc(NC(=O)CCN2CCN(c3ccccc3F)CC2)cc1 | inconclusive [activator, full curve] |
| O=C(CN1CCN(c2ccccn2)CC1)Nc1cccc(S(=O)(=O)N2CCOCC2)c1 | inconclusive [activator, full curve, poor fit] |
| COc1ccc(C2=CC(=O)C[C@H](c3ccc(OC)c(OC)c3)C2)cc1 | inactive |
| CNC[C@H](O)c1cccc(O)c1 | inconclusive [activator, full curve] |
| COc1ccc(/C=N/Nc2nnc(-c3ccccc3)c(=O)[nH]2)cc1 | inactive |
| CCCC(=O)Nc1ccc2c(c1)nc(CCN1CCN(c3ccccn3)CC1)n2C | inconclusive [activator, partial curve] |
| C=CCn1c(SCC(=O)NCC(c2ccccc2)N(C)C)nnc1C1CCCCC1 (centres undefined) | inactive |
| COc1ccc(CN2CCN(C(=O)c3ccco3)CC2)cc1OC | active: 15.8 µM |
| CCCCN(CC)CCCNC(=S)Nc1ccc2nc(N3CCN(CC)CC3)cc(C)c2c1 | inactive |
| O=C(NCCCN1CCN(c2ccccc2F)CC1)Nc1ccc(F)cc1 | inconclusive [activator, partial curve, poor fit] |
| Cc1ccc(Nc2nc(N)nc(CN3CCN(c4ccccc4F)CC3)n2)cc1 | inconclusive [activator, partial curve] |
| O=C(c1ccc(Br)o1)N1CCN(Cc2ccc3c(c2)OCO3)CC1 | inactive |
| COCc1c(C(=O)N2CCN(CCOc3ccccc3)CC2)oc2ccccc12 | inconclusive [activator, partial curve] |
| FC(F)Sc1ccc(NC(=S)N2CCN(c3ccccn3)CC2)cc1 | inconclusive [activator, partial curve] |
| CCOC(=O)c1cccc(OCC(O)CNCCOc2ccccc2F)c1 (centres undefined) | inconclusive [activator, partial curve] |
| COc1ccc(C)cc1NC(=O)CCN1CCN(c2ccccc2F)CC1 | inconclusive [activator, partial curve] |
| Cn1cncc1C#Cc1ccc2cc(CCO)oc(=O)c2c1 | inactive |
| CCC(=O)c1ccc(OCC(O)CN2CCN(c3ccc(F)cc3)CC2)cc1 (centres undefined) | inactive |
| O=[N+]([O-])c1cccnc1N1CCN(Cc2ccc3c(c2)OCO3)CC1 | inconclusive [activator, full curve, poor fit] |

Source: PubChem BioAssay AID720507 (National Center for Advancing Translational Sciences (NCATS), 2013)
